Results on 34 compounds are retold here after PubChem BioAssay (NCI).

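Five compound concentrations were applied to cells in 96-well plates for 48 hours; endpoints were derived by simple linear interpolation of the resulting dose-response curve. At the GI50, growth is halved. TGI denotes the concentration required for complete inhibition of growth.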 A value given as a limit tells only on which side of the number the result lay.

In general, GI50 refers to the concentration at which growth is held to half of that of the control. A word on the TGI: it is the concentration giving total growth inhibition.

This assay relates to NCI-H322M lung. Put plainly: DTP human tumour cell line panel, 48 h.
Turning to `C[C@]12CC[C@@H]3c4ccc(O)cc4CC[C@H]3[C@@H]1CC[C@@H]2NS(=O)(=O)c1cccc(F)c1`, the GI50 was 9 µM and the TGI stood at 22.3 µM.
Consider `C[C@]12CC[C@H](O)C[C@H]1CC[C@@H]1[C@@H]2CC[C@]2(C)[C@@H](C3=CC(=O)OC3)CC[C@]12O`, for which the TGI came to 0.826 µM.
As to `O=c1[nH]c2cc(Cl)ccc2nc1/C(=N\O)C(O)c1ccc(Cl)cc1Cl` (stereo not drawn), the TGI is greater than 100 µM.
On to `Cc1cc(C)cc(Nc2cc(=O)[nH]c(=O)[nH]2)c1`, for which the TGI was greater than 100 µM.
For `O=S1OC2(c3ccccc3-c3ccccc32)c2ccccc21` (stereo not drawn), the TGI is greater than 100 µM.
Consider `NC1=NS(=O)(=O)Nc2nc(-c3ccc([N+](=O)[O-])o3)[nH]c21`, for which the TGI stood at 30 µM.
The compound `C[C@@]12CCCc3coc(c31)C(=O)c1cc3c(cc12)C(=O)C=CC3=O` gave a TGI greater than 1 µM.
The compound `COC(=O)N/N=C(\C)C(CN1CCCCC1)C(C1=C(O)c2ccccc2OC1)c1ccccc1` (stereo not drawn) came in with a TGI greater than 100 µM.
Consider `COc1ccc2[nH]c3c4c(ccc3c2c1)C(=O)C=CC4=O`, for which the TGI worked out at 59.5 µM.
Consider `Nc1c(Cl)ncnc1N[C@@H]1C[C@H]1CO`, for which the TGI was greater than 100 µM.
The same measure, in the same setting: in the case of `COc1cccc(-n2c3nc(=O)n(C)c(=O)c-3nc3ccccc32)c1` it was 81 µM.
As to `O=C(/C=C/c1cc(CN2CCOCC2)c(O)c2ncccc12)c1cc(CN2CCOCC2)c(O)c2ncccc12`, the GI50 was 0.573 µM and the TGI is greater than 100 µM.
The corresponding values for `COc1cccc(/C(COc2ccc3c(c2)oc(=O)c2cc(OC)ccc23)=N/O)c1` are greater than 100 µM and greater than 100 µM.
Regarding `CN(NC(=O)c1cccs1)C1=NCCCN1`, the TGI was greater than 100 µM.
The compound `CCCCCC(=O)NC(=S)Nc1nn[nH]n1` gave a TGI greater than 100 µM.
In turn, `O=C(Cc1ccccc1)NN1C(=O)C(Cl)C1c1ccc(O)cc1` (stereo not drawn) displayed a TGI greater than 100 µM.
Turning to `NC(=O)NNC(=O)c1nc[nH]c1[N+](=O)[O-]`, the TGI was greater than 100 µM.
`Nc1cccc(Nc2nc3ccccc3nc2NS(=O)(=O)c2ccccc2)c1` displayed a TGI greater than 100 µM.
Regarding `CC(C)N=c1cc2n(-c3ccc(Cl)cc3)c3ccccc3nc-2cc1Nc1ccc(Cl)cc1`, the GI50 was 2.03 µM and the TGI was greater than 100 µM.
In turn, `CC(=O)c1ccc2c3c1[C@@H]1O[C@@H]1c1cccc(c1-3)[C@@H]1O[C@H]21` yielded a TGI of 30.6 µM.
As for `C1C[OH+]CCNCC[OH+]CC[OH+]CCN1.[Cl-].[Pt+4]`, the GI50 was greater than 100 µM and the concentration for total growth inhibition (TGI) was greater than 100 µM.
The compound `CCn1nc2c3c(ncn3C(C)(C)O2)c1=O` yielded a TGI greater than 100 µM.
The same measure, in the same setting: the figure for `COc1ccc(Nc2nc(NS(=O)(=O)c3cc(C)c(Cl)cc3S)n[nH]2)cc1` is greater than 100 µM; for `COc1ccc(O)cc1` it is greater than 100 µM; for `Cc1ccn2c(=O)cc(-c3ccccc3)nc2c1` it is greater than 100 µM.
Consider `CCCC(C)NC1=C(NC(C)=O)C(=O)c2ccccc2C1=O` (stereo not drawn), for which the TGI was greater than 100 µM.
With `NC(N)=NCCCCCNc1noc(Cc2c[nH]c3cc(Br)ccc23)n1`, the GI50 is 12.1 µM and the TGI turned out to be 28.3 µM.
On to `CC(=O)Nc1cc2c(s1)CCC1CC(=O)NN=C21` (stereo not drawn), for which the TGI was greater than 100 µM.
As for `Cc1ccc(/C(O)=C/C(=O)C(=O)/C=C(\O)c2ccc(C)cc2C)c(C)c1`, the TGI stood at 55.2 µM.
Compound `O=c1c2c([N+](=O)[O-])cccc2nc2[nH]c3ccccc3n12` gave a concentration for total growth inhibition (TGI) greater than 75 µM.
On to `COc1ccc(-c2c[nH]c(=S)n2-c2ccc(OC)cc2)cc1`, for which the GI50 is greater than 50 µM and the TGI is greater than 50 µM.
For the compound `O=[N+]([O-])c1ccc2c(c1)C(c1ccccc1Cl)=Nc1cn[nH]c1N2`, the GI50 was greater than 25 µM and the TGI is greater than 25 µM.
`Cc1cc(C)c(C2[C@H]3C(=O)N(c4ccc(Cc5ccc(N6C(=O)[C@@H]7ON(c8ccccc8)C(c8c(C)cc(C)cc8C)[C@@H]7C6=O)cc5)cc4)C(=O)[C@H]3ON2c2ccccc2)c(C)c1` (stereo partly drawn): the TGI is greater than 100 µM.
On to `CC(=O)/C=C/c1ccc(C#Cc2ccccc2)s1`, for which the GI50 was 14.9 µM and the TGI is 28.2 µM.
